# In all, about 81,000 sequences were measured (“one-hybrid fitness for binding parS DNA”: median about -0.17, highest 2% from about 0.51 on). Some of the results follow.
# B1: Caulobacter ParB omega fusion; a variant is named by its letters at X, in order, B8GW30 (parent)
# chain: MESVVVGEPGMSEGRRGLGRGLSALLGEVDAAPAQAPGEQLGGSREAPIEILQRNPDQPRRTFREEDLEDLSNSIREKGVLQPILVRPSPDTAGEYQIVAGERAWRAAQRAGLKTVPIMVRELDDLAVLEIGIIENVQRADLNVLEEALSYKVLMEKFERTQENIAQTIGKSXSHVANXMRLLXLPDEVQSYLVSGELTAXHARAIAAAADPVALAKQIIEGGLSVRETEALARKAPNLSAGKSKGGRPPRVKDTDTQALESDLSSVLGLDVSIDHRGSTGTLTITYATLEQLDDLCNRLTRGI
# Variants of: B1
# Experiment: one-hybrid fitness for binding parS DNA (scaled: cognate 1, non-cognate 0); higher = stronger binding
# Conditions: with parS DNA site
# Summary of the method: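 Fitness is the rescaled log change in variant-to-wild-type read ratio, measured by Illumina sequencing of plasmids before and after bacterial one-hybrid selection. The scale puts cognate at 1 and non-cognate at 0. Selection of Caulobacter ParB libraries, four specificity codons randomised, took place in E. coli USO with a HIS3 reporter, site 19 bp from the promoter, over 48 hours at 37°C on M9-minus-histidine with 0.1 mM IPTG and 5 mM 3-AT.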
row,Variant,one-hybrid fitness for binding parS DNA
1,MTAP,≤ 0.2
2,NCNN,≤ 0.2
3,HEIT,≤ 0.2
4,LMLG,≤ 0.2
5,ATIK,≤ 0.2
6,HQNC,≤ 0.2
7,QIHK,≤ 0.2
8,RTEP,≤ 0.2
9,RLIF,≤ 0.2
10,DTTW,≤ 0.2
11,HNRF,≤ 0.2
12,ITTG,≤ 0.2
13,PLFS,≤ 0.2
14,KRDD,≤ 0.2
15,FANR,≤ 0.2
16,CSSA,≤ 0.2
17,PVQA,≤ 0.2
18,SNGW,≤ 0.2
19,CADS,≤ 0.2
20,YMPK,≤ 0.2
21,QTTY,≤ 0.2
22,HTTV,≤ 0.2
23,TAQK,≤ 0.2
24,CVFK,≤ 0.2

row,Variant,one-hybrid fitness for binding parS DNA
1,VDCR,≤ 0.2
2,PHCS,≤ 0.2
3,WNNK,≤ 0.2
4,DQTK,≤ 0.2
5,VPWT,≤ 0.2
6,KRWS,≤ 0.2
7,KDES,≤ 0.2
8,SWPN,≤ 0.2
9,IPRN,≤ 0.2
10,NCRL,≤ 0.2
11,WENF,≤ 0.2
12,ALFI,≤ 0.2
13,DILQ,≤ 0.2
14,KYAY,≤ 0.2
15,FAAY,≤ 0.2
16,VDVL,≤ 0.2
17,WATQ,≤ 0.2
18,RYAN,0.387
19,RSKC,0.943
20,LMAS,≤ 0.2
21,CQAR,≤ 0.2
22,HQTR,≤ 0.2
23,KRDN,≤ 0.2
24,GINT,≤ 0.2

row,Variant,one-hybrid fitness for binding parS DNA
1,DVTN,≤ 0.2
2,HFWF,≤ 0.2
3,TMYR,≤ 0.2
4,SIFG,≤ 0.2
5,YRNV,≤ 0.2
6,NTES,≤ 0.2
7,QVWI,≤ 0.2
8,IREL,≤ 0.2
9,KMMS,≤ 0.2
10,YTHA,≤ 0.2
11,PQVT,≤ 0.2
12,NTVV,≤ 0.2
13,IQTS,≤ 0.2
14,CVVS,≤ 0.2
15,VLNE,≤ 0.2
16,LLQI,≤ 0.2
17,HYAD,≤ 0.2
18,HSRW,≤ 0.2
19,QNIG,≤ 0.2
20,QDLF,≤ 0.2
21,LVRR,≤ 0.2
22,RSLD,≤ 0.2
23,RFKR,≤ 0.2
24,HHLF,≤ 0.2

row,Variant,one-hybrid fitness for binding parS DNA
1,ARYW,≤ 0.2
2,NFHD,≤ 0.2
3,GLRL,≤ 0.2
4,TQPA,≤ 0.2
5,MERT,≤ 0.2
6,DLVV,≤ 0.2
7,LAAN,≤ 0.2
8,MNCF,≤ 0.2
9,RHNQ,≤ 0.2
10,STFP,≤ 0.2
11,FEDV,≤ 0.2
12,RKPW,≤ 0.2
13,TPGW,≤ 0.2
14,RRCW,0.218
15,CRHF,≤ 0.2
16,QQTQ,≤ 0.2
17,DTAG,≤ 0.2
18,LFWG,≤ 0.2
19,GAGG,≤ 0.2
20,QRAC,≤ 0.2
21,LDLE,≤ 0.2
22,TGHH,≤ 0.2
23,PYSM,≤ 0.2
24,QMSF,≤ 0.2

row,Variant,one-hybrid fitness for binding parS DNA
1,CYSF,≤ 0.2
2,HKKS,≤ 0.2
3,RLTA,0.599
4,WRKA,≤ 0.2
5,PRCM,≤ 0.2
6,AGMI,≤ 0.2
7,GMHT,≤ 0.2
8,ADTS,≤ 0.2
9,PDPL,≤ 0.2
10,RKAR,≤ 0.2
11,RPLN,≤ 0.2
12,QFMR,≤ 0.2
13,NNSY,≤ 0.2
14,RAGR,≤ 0.2
15,ALDC,≤ 0.2
16,VAPN,≤ 0.2
17,CLHE,≤ 0.2
18,LECG,≤ 0.2
19,FQAY,0.234
20,QPMY,≤ 0.2
21,WRFG,≤ 0.2
22,SATE,≤ 0.2
23,QLDT,≤ 0.2
24,ARYV,≤ 0.2

row,Variant,one-hybrid fitness for binding parS DNA
1,DCKC,≤ 0.2
2,YKDG,≤ 0.2
3,MTLS,≤ 0.2
4,CDPL,≤ 0.2
5,MVWT,≤ 0.2
6,CMSN,≤ 0.2
7,LLTK,≤ 0.2
8,QTDS,≤ 0.2
9,RAQF,0.229
10,NLWG,≤ 0.2
11,EPLR,≤ 0.2
12,IWGC,≤ 0.2
13,SNAC,≤ 0.2
14,VKCG,≤ 0.2
15,FGNG,≤ 0.2
16,RYHW,0.212
17,RAER,≤ 0.2
18,SDRC,≤ 0.2
19,PNPM,≤ 0.2
20,PVRQ,≤ 0.2
21,RFCR,≤ 0.2
22,DELS,≤ 0.2
23,MCPF,≤ 0.2
24,PQQS,≤ 0.2

row,Variant,one-hybrid fitness for binding parS DNA
1,RPPD,≤ 0.2
2,TINV,≤ 0.2
3,MPAW,≤ 0.2
4,FPHR,≤ 0.2
5,NCNQ,≤ 0.2
6,KMGR,≤ 0.2
7,SNHT,≤ 0.2
8,SHTG,≤ 0.2
9,PFRP,≤ 0.2
10,EWDR,≤ 0.2
11,WDLY,≤ 0.2
12,RIMP,≤ 0.2
13,HGVY,≤ 0.2
14,ERAV,≤ 0.2
15,SHPQ,≤ 0.2
16,LIAG,≤ 0.2
17,PMES,≤ 0.2
18,NREN,≤ 0.2
19,PTSV,≤ 0.2
20,CHYS,≤ 0.2
21,TPPK,≤ 0.2
22,VCTL,≤ 0.2
23,RLML,≤ 0.2
24,AEHK,≤ 0.2

row,Variant,one-hybrid fitness for binding parS DNA
1,TAHA,≤ 0.2
2,MWNV,≤ 0.2
3,PWLG,≤ 0.2
4,GTNM,≤ 0.2
5,CGRS,≤ 0.2
6,PSQD,≤ 0.2
7,HFAL,≤ 0.2
8,QPEA,≤ 0.2
9,ARSV,≤ 0.2
10,TVYT,≤ 0.2
11,SVLM,≤ 0.2
12,QVGC,≤ 0.2
13,LPKP,≤ 0.2
14,HMPC,≤ 0.2
15,PRVH,≤ 0.2
16,VISR,≤ 0.2
17,HHNQ,≤ 0.2
18,LEAF,≤ 0.2
19,FKRS,≤ 0.2
20,FSGD,≤ 0.2
21,QGSQ,≤ 0.2
22,KRLS,≤ 0.2
23,RAEG,0.852
24,PMCC,≤ 0.2

row,Variant,one-hybrid fitness for binding parS DNA
1,QQPC,≤ 0.2
2,LQVG,≤ 0.2
3,VPMT,≤ 0.2
4,RDHR,≤ 0.2
5,QIKM,≤ 0.2
6,FQSR,≤ 0.2
7,YTTR,≤ 0.2
8,AWNG,≤ 0.2
9,KTII,≤ 0.2
10,RCDA,0.567
11,PCGL,≤ 0.2
12,QDWG,≤ 0.2
13,GPNV,≤ 0.2
14,QLRD,≤ 0.2
15,LWAR,≤ 0.2
16,FMRG,≤ 0.2
17,TLVR,≤ 0.2
18,EGVR,≤ 0.2
19,WHEG,≤ 0.2
20,NQYG,≤ 0.2
21,LVTD,≤ 0.2
22,YSKQ,≤ 0.2
23,TFYS,≤ 0.2
24,TGYT,≤ 0.2

row,Variant,one-hybrid fitness for binding parS DNA
1,VEMG,≤ 0.2
2,LKGS,≤ 0.2
3,THAV,≤ 0.2
4,NIAS,≤ 0.2
5,PQVV,≤ 0.2
6,PNAL,≤ 0.2
7,VAEA,≤ 0.2
8,CTYV,≤ 0.2
9,TCAY,≤ 0.2
10,QIGE,≤ 0.2
11,QDSY,≤ 0.2
12,LTPF,≤ 0.2
13,NNKG,≤ 0.2
14,FHKW,≤ 0.2
15,QQNQ,≤ 0.2
16,WRKE,≤ 0.2
17,SYSG,≤ 0.2
18,QFPE,≤ 0.2
19,QDKV,≤ 0.2
20,ISLP,≤ 0.2
21,LGMH,≤ 0.2
22,PEYG,≤ 0.2
23,KEIR,≤ 0.2
24,VRSI,≤ 0.2

row,Variant,one-hybrid fitness for binding parS DNA
1,DINS,≤ 0.2
2,WPFG,≤ 0.2
3,EVSG,≤ 0.2
4,QSVN,≤ 0.2
5,ACES,≤ 0.2
6,TLGY,≤ 0.2
7,VTSC,≤ 0.2
8,PRMT,≤ 0.2
9,LSTL,≤ 0.2
10,CQPP,≤ 0.2
11,PDYW,≤ 0.2
12,TQAS,≤ 0.2
13,SEHI,≤ 0.2
14,CHDS,≤ 0.2
15,QMQW,≤ 0.2
16,YNNT,≤ 0.2
17,LQQR,≤ 0.2
18,PDHL,≤ 0.2
19,ASSL,≤ 0.2
20,HNFR,≤ 0.2
21,VASP,≤ 0.2
22,REQE,≤ 0.2
23,SGSQ,≤ 0.2
24,YFST,0.481

row,Variant,one-hybrid fitness for binding parS DNA
1,SLGS,≤ 0.2
2,GQSW,≤ 0.2
3,RGMA,0.283
4,SSKM,≤ 0.2
5,SPPE,≤ 0.2
6,EFSC,≤ 0.2
7,HEEL,≤ 0.2
8,GHPE,≤ 0.2
9,LNRF,≤ 0.2
10,YRYE,≤ 0.2
11,DTQL,≤ 0.2
12,VLSR,≤ 0.2
13,VRGT,≤ 0.2
14,GIKR,≤ 0.2
15,DAIP,≤ 0.2
16,SKYN,≤ 0.2
17,RQHE,≤ 0.2
18,GANV,≤ 0.2
19,RMGC,0.952
20,NYCK,≤ 0.2
21,QRGK,≤ 0.2
22,FVNN,≤ 0.2
23,AEVY,≤ 0.2
24,TMIG,≤ 0.2

row,Variant,one-hybrid fitness for binding parS DNA
1,IIGS,≤ 0.2
2,EKIS,≤ 0.2
3,GATS,≤ 0.2
4,TVNK,≤ 0.2
5,RGGR,≤ 0.2
6,FHKT,≤ 0.2
7,VLGT,≤ 0.2
8,RCCI,≤ 0.2
9,NPPA,≤ 0.2
10,NTLR,≤ 0.2
11,HTWV,≤ 0.2
12,PRVT,≤ 0.2
13,AIDT,≤ 0.2
14,FTRV,≤ 0.2
15,FHKV,≤ 0.2
16,QMMK,≤ 0.2
17,CYGL,≤ 0.2
18,TMDL,≤ 0.2

# From a collection of fitness landscapes (doi:10.1016/j.celrep.2020.107928)
